This note sets out measurements from US11247989B2 (priority 2017, dated 2022).

For this assay, the system named is MYC. Kind of assay: cells. The following applies: Homo sapiens, MV4-11, 4 h, read-out: Myc IC50 (μM).
By IC50 is commonly meant the concentration that inhibits the measured activity by half. Regarding `CNC(=O)N1CCc2c(c(-c3cccc4cc(-c5cnn(C)c5)ncc34)c(C#N)n2C2CCOCC2)C1` [Example 49, 2-cyano-N-methyl-3-(3-(1-methyl-1H-pyrazol-4-yl)isoquinolin-8-yl)-1-(tetrahydro-2H-pyran-4-yl)-6,7-dihydro-1H-pyrrolo[3,2-c]pyridine-5(4H)-carboxamide], the IC50 was 0.0559 µM. With `CC(=O)N1CCc2c(c(-c3cccc4cc(-c5cnn(C)c5C)ncc34)nn2C2CCOCC2)C1` [Example 90] the figure was 0.0168 µM; with `CNC(=O)N1CCc2c(c(-c3cncc4cc(-c5cnn(C)c5)c(C(F)F)cc34)nn2C2CCOCC2)C1` [Example 25, 3-(6-(difluoromethyl)-7-(1-methyl-1H-pyrazol-4-yl)isoquinolin-4-yl)-N-methyl-1-(tetrahydro-2H-pyran-4-yl)-6,7-dihydro-1H-pyrazolo[4,3-c]pyridine-5(4H)-carboxamide], 0.00596 µM. For `CNC(=O)[C@H]1CCN(c2cc3cccc(-c4nn(C5CCOCC5)c5c4CN(C(C)=O)CC5)c3cn2)C1` (single isomer, unassigned) [Example 14] the value was 0.203 µM; for `CC(=O)N1CCc2c(c(-c3cccc4cc(-c5cnn(C)c5)ccc34)nn2[C@H]2CCOC2)C1` [Example 36, (S)-1-(3-(6-(1-methyl-1H-pyrazol-4-yl)naphthalen-1-yl)-1-(tetrahydrofuran-3-yl)-6,7-dihydro-1H-pyrazolo[4,3-c]pyridin-5(4H)-yl)ethanone], 0.0465 µM. For `COc1ccc(N2Cc3c(cccc3-c3nn(C4CCOCC4)c4c3CN(C(C)=O)CC4)C2=O)cc1` [Example 145] the value was 4.42 µM. Turning to `CC(=O)N1CCc2c(c(-c3cccc4c(C#N)c(-c5cnn(C)c5)ncc34)nn2C2CCOCC2)C1` [Example 32, 8-(5-acetyl-1-(tetrahydro-2H-pyran-4-yl)-4,5,6,7-tetrahydro-1H-pyrazolo[4,3-c]pyridin-3-yl)-3-(1-methyl-1H-pyrazol-4-yl)isoquinoline-4-carbonitrile], the IC50 came to 0.0728 µM. For `CC(=O)N1CCc2c(c(-n3ccc4ccc(-c5cnn(C)c5)cc43)nn2C2CCOCC2)C1` [Example 147] the value was 0.263 µM. As to `CC(=O)N1CCc2c(c(-c3csc4ccccc34)nn2C2CCOCC2)C1` [Example 135], the IC50 is 1.01 µM. With `CC(=O)N1CCc2c(c(-c3cccc4cc(N5CC[C@@H](C)C5)ncc34)nn2C2CCOCC2)C1` [Example 118] the figure was 0.85 µM; with `CC(=O)N1CCc2c(c(-c3cccc4cc(N5CCC[C@@H]5C)ncc34)nn2C2CCOCC2)C1` [Example 114], 1.15 µM; with `CC(=O)N1CCc2c(c(-c3cccc4cc(N5CCC(F)(F)C5)ncc34)nn2C2CCOCC2)C1` [Example 125], 0.925 µM. With `CCc1cc(-c2nn(C3CCOCC3)c3c2CN(C(C)=O)CC3)c2cnc(-c3cnn(C)c3)cc2c1` [Example 31, 1-(3-(6-ethyl-3-(1-methyl-1H-pyrazol-4-yl)isoquinolin-8-yl)-1-(tetrahydro-2H-pyran-4-yl)-6,7-dihydro-1H-pyrazolo[4,3-c]pyridin-5(4H)-yl)ethanone] the figure was 0.0646 µM; with `CC(=O)N1CCc2c(c(-c3cccc4[nH]ncc34)nn2C2CCOCC2)C1` [Example 140], 2.71 µM; with `CNC(=O)c1ccc(-c2cc3ccc(F)c(-c4nn(C5CCOCC5)c5c4CN(C(C)=O)CC5)c3cn2)cn1` [Example 86], 0.0305 µM. With `CC(=O)N1CCc2c(c(-c3cccc4cc(N5CCOCC5)ncc34)nn2C2CCOCC2)C1` [Example 130] the figure was 0.285 µM.
